Measured values published in the supplement of paper PMC3334620.
Over roughly 33,000 sequences, “E-score (-0.5 to 0.5)” has its median near -0.053; the highest 2% begin near 0.37. The list shows a part of the results.

What follows are sequences tested against Hap1 (UniProt P0CE41) (assay: PBM E-score (8-mer binding enrichment) (E-score (-0.5 to 0.5)); higher = stronger / more preferred TF binding; most listed sequences are background and not binding sites). Conditions: protein concentration: 200 nM; construct: GST-DNA-binding domain.
Description: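 Universal 'all 10-mer' protein binding microarrays (Agilent AMADID 015681) probed with GST-tagged S. cerevisiae TFs (full-length or DBD) made by in vitro transcription/translation (PURExpress), about 100-200 nM. Bound TF was detected with fluorescent anti-GST. Each ungapped 8-mer (which stands for itself and its reverse complement) is scored by the PBM enrichment score (E-score), a modified Wilcoxon-Mann-Whitney statistic from -0.5 to +0.5, computed with the Universal PBM Analysis Suite. Scale: above 0.35 generally sequence-specific binding.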

UniProt P0CE41, sequence (P0CE41 whole entry, the tested form may be a part): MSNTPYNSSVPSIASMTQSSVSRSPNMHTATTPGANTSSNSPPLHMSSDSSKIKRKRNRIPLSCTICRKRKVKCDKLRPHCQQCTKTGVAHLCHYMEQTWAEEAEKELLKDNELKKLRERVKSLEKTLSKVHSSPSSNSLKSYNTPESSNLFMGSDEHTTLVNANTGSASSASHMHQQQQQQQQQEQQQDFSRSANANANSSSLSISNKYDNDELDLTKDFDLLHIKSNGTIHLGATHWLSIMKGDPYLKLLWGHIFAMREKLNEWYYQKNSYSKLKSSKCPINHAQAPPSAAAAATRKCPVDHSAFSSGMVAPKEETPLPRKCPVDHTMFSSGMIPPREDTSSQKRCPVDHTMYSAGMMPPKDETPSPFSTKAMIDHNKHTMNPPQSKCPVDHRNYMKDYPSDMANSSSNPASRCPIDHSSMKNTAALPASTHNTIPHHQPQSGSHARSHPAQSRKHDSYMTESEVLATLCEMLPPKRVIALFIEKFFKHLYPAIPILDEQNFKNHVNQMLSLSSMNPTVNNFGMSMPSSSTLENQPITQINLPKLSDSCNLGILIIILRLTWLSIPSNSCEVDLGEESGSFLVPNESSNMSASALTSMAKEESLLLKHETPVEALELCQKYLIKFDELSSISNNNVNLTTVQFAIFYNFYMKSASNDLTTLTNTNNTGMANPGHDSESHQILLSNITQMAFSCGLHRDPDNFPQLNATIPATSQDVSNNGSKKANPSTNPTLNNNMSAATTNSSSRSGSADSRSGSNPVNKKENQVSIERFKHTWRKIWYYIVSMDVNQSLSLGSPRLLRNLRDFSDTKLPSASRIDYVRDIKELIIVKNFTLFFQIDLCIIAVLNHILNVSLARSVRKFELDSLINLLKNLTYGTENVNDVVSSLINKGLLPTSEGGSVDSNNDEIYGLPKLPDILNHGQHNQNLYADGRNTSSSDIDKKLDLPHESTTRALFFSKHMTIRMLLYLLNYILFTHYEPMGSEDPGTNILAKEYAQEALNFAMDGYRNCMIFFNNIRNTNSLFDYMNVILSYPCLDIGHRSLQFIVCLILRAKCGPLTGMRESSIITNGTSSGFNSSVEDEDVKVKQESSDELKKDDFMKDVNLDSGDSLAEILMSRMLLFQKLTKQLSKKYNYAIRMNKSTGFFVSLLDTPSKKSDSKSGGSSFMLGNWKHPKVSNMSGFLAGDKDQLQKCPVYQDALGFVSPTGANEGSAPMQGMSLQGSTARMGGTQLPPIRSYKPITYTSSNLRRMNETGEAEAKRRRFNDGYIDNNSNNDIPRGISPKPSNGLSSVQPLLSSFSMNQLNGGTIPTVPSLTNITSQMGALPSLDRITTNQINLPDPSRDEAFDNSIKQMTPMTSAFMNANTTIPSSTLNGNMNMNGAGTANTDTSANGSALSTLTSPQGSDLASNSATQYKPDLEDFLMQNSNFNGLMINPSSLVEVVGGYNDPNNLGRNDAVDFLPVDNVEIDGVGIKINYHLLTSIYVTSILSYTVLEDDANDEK

| Sequence | PBM E-score |
| --- | --- |
| CCTGGTGC | -0.0907 |
| AGTCCCAG | -0.0617 |
| AAAAAATT | 0.0584 |
| CCGTTAAC | 0.367 |
| GGGCCGCA | 0.196 |
| AGTTGGAC | -0.0691 |
| CTCCTTGA | -0.0807 |
| ACCAAGCT | -0.305 |
| GGCAATCA | 0.0187 |
| CATGTTGG | -0.212 |
| CACCAGGG | -0.26 |
| ACGAGTAT | -0.113 |
| AAATGAAG | -0.123 |
| AACGCGCA | -0.102 |
| ACTGCTGA | -0.271 |
| ACAAACCA | -0.171 |
| ATACCCTG | -0.0146 |
| AGAATAAG | -0.0603 |
| GCCATCTA | -0.127 |
| CCTGTAGA | -0.0406 |
| AGATCAAA | -0.0404 |
| CTAAGCCA | -0.187 |
| CTGAGTAA | -0.225 |
| ATAATAAC | 0.137 |
| ACTCCACG | -0.0489 |

| Sequence | PBM E-score |
| --- | --- |
| ACAGGGGA | -0.273 |
| AGTCAGCA | -0.219 |
| CCTTGTCC | 0.0758 |
| TACGTGGA | 0.0421 |
| CGTTGAAG | -0.229 |
| CTCTGCTC | -0.113 |
| AGCTTAAT | 0.073 |
| CCTCTAGA | -0.191 |
| ATACTTGC | -0.153 |
| GCGAGTAC | 0.0106 |
| CCGAGGCC | 0.295 |
| CAACTGTC | -0.266 |
| ATACTTCC | 0.162 |
| GACTGGGC | -0.135 |
| GAATACTC | -0.104 |
| ACGTGGGG | -0.0763 |
| ATACGAGA | -0.23 |
| GCGAGGTA | -0.00955 |
| CGATCTGC | 0.156 |
| GTCGATGA | -0.0213 |
| AGGTCAGA | -0.2 |
| ATGCTCGG | 0.362 |
| TTAGTCAA | -0.177 |
| CTCCCGGC | 0.33 |
| AAACGTCT | -0.233 |

| Sequence | PBM E-score |
| --- | --- |
| CGTTGTCA | -0.0765 |
| AAGTGGAT | -0.0429 |
| CCGTGACA | 0.131 |
| AGGCTTTG | -0.107 |
| CGGGTGGC | 0.152 |
| GATCTGTA | -0.0449 |
| GTATCTGA | -0.096 |
| AGGTCATG | -0.226 |
| AACAGTGA | 0.0381 |
| GTACAGTA | -0.0509 |
| AGTCACAG | -0.319 |
| CCCCCGCA | -0.115 |
| CAGAAAGG | -0.156 |
| TTACGCAA | -0.0446 |
| AACGCATA | -0.0635 |
| CTGTGTTC | -0.19 |
| CAATACCC | 0.189 |
| TCCGAAGA | 0.419 |
| CGCAATAG | 0.0177 |
| CGATGGCA | 0.148 |
| ACCGACGG | 0.38 |
| CAGGGAAG | -0.235 |
| CGGAGAAC | 0.36 |
| TACGCTCA | -0.241 |
| GTGATAAA | 0.0398 |

| Sequence | PBM E-score |
| --- | --- |
| GCGTCCAA | -0.256 |
| TGGCGAAA | 0.112 |
| TAGCACAA | -0.249 |
| CTTCAATA | -0.191 |
| CTTAATAC | -0.103 |
| ACCTCTCC | -0.13 |
| AAAGATCG | 0.0407 |
| CGTCTCAG | -0.243 |
| AACTCGAG | -0.0394 |
| GAAGGGAA | -0.0885 |
| GAATTTGA | 0.147 |
| TAAGACTA | -0.234 |
| GAGAATCC | 0.112 |
| CAGGGTCC | -0.191 |
| ACGATGTA | -0.127 |
| CAGATTAC | 0.0095 |
| CGATGATA | 0.0471 |
| CGAGCGTA | 0.0531 |
| CATAGCTC | -0.09 |
| ACAGTGGA | -0.0195 |
| GAGTGTCA | -0.145 |
| AGAGTGCA | -0.195 |
| TAGACGAA | -0.357 |
| AAGAACCC | -0.106 |
| ACCATAAA | -0.0487 |

| Sequence | PBM E-score |
| --- | --- |
| CCCAATAC | -0.153 |
| ATTTACCC | 0.0884 |
| GGAGTGTA | 0.0459 |
| GCCCACCA | -0.215 |
| CCCAAGCG | -0.0424 |
| AACTTGTA | -0.143 |
| ATTAACAC | 0.0953 |
| CTTTGGTA | -0.0756 |
| AGGAACGG | 0.111 |
| CTTAAAGA | -0.147 |
| CATAACAG | -0.173 |
| TAGCCAGA | -0.148 |
| AGCTAATC | -0.0948 |
| GTCCACGA | -0.116 |
| GGAGCTAC | 0.0083 |
| AGAGTCTG | -0.367 |
| ACGCTCGC | -0.123 |
| TGTTACAA | -0.0917 |
| GTACTCGA | -0.152 |
| CATATGAA | 0.0276 |
| GAGATCTA | -0.105 |
| AATTGTAA | -0.207 |
| ACAGGGAA | -0.168 |
| AGCCCAGC | 0.043 |
| GAAACCTA | -0.0569 |

| Sequence | PBM E-score |
| --- | --- |
| AAGATTAA | -0.0677 |
| GACCCTTA | 0.0366 |
| CATTCCTC | 0.0608 |
| AAGCTACA | -0.191 |
| ATGCTTAA | 0.0955 |
| CATCACGC | 0.133 |
| CAAGCCTG | -0.218 |
| ATGTTGCC | 0.117 |
| GCGTTCAC | 0.102 |
| ACTACAGT | -0.265 |
| TCATGTAA | -0.138 |
| AAATGCGT | 0.0449 |
| AGCGGCCC | 0.129 |
| GAGTCTGA | -0.227 |
| CATAGACA | -0.215 |
| ATTTGTAC | -0.115 |
| CGTCTCAC | -0.143 |
| AATGCAAG | -0.0791 |
| CAATCCGC | 0.191 |
| CGAGAGAC | -0.00248 |
| GCGAGTGA | -0.121 |
| AACATCAA | -0.0229 |
| TGGTAAAA | -0.0559 |
| ACTAAGAT | -0.0143 |
| CGTAGGTC | 0.0601 |

| Sequence | PBM E-score |
| --- | --- |
| ATAGAGGG | 0.0305 |
| ACTTCTCC | 0.22 |
| ATACCTAT | -0.118 |
| TATTGCGA | 0.0517 |
| CTGGTATA | -0.276 |
| TCCCGCCA | -0.0362 |
| GGCTTATA | 0.0382 |
| ACCGAGTA | 0.278 |
| ATTGGGCG | -0.0404 |
| AATCACGC | -0.0489 |
| CTATTTAC | 0.0663 |
| ATATATTG | 0.0696 |
| GAGCTGAA | -0.106 |
| CCAGTTTC | -0.0309 |
| TTCTCAAA | -0.166 |
| CACCCAGG | -0.184 |
| CCACGGAG | 0.295 |
| AAGCTAAG | -0.096 |
| TCCAAGAA | -0.125 |
| ATTTTGGG | -0.203 |
| CAAACTTA | -0.00381 |
| CACATACA | -0.282 |
| AACTACCA | -0.224 |
| GGTCGTCA | -0.0969 |
| CACCACGG | 0.0095 |

| Sequence | PBM E-score |
| --- | --- |
| GCTCTGCA | -0.253 |
| AAGCTTAA | 0.0231 |
| CTAAACCC | 0.227 |
| ATTATTAG | -0.0256 |
| GGTCTCAA | 0.0617 |
| AGCATGCT | -0.351 |
| CGACACAG | -0.0602 |
| CCCAACAA | -0.105 |
| CTAGATCC | 0.0983 |
| CCTAAACC | 0.129 |
| GCCTGTGA | -0.279 |
| GTCGTCAC | -0.0951 |
| ACGGTGAA | 0.16 |
| ATTAGGTC | 0.108 |
| AGCACTTA | -0.129 |
| TAGTACTA | -0.319 |
| GTTGTTCA | -0.168 |
| GAATTAAA | 0.0797 |
| ACCGCCGG | 0.365 |
| CTACGTTA | 0.00803 |
| TACATGAA | -0.123 |
| CACCTCGG | 0.35 |
| ACTGGACT | -0.0692 |
| GGAACTCC | 0.177 |
| AGGACATA | -0.187 |

| Sequence | PBM E-score |
| --- | --- |
| GTCCTGTA | 0.0805 |
| GACATAAA | -0.0262 |
| GTATCCTA | -0.0588 |
| CACAGACG | -0.129 |
| TAGTTTCA | -0.024 |
| GTAAATAA | -0.129 |
| GACAGTCA | -0.139 |
| AGTAGCTC | -0.0947 |
| ATATGCCG | 0.27 |
| TGCCAGAA | -0.217 |
| GAGAAGAA | 0.00165 |
| ACTGAGAG | -0.135 |
| AGCGATTG | -0.162 |
| ACTTCTAA | 0.0378 |
| GCCCGTCC | 0.187 |
| TACTTGCA | -0.0804 |
| ACGGTACG | 0.0968 |
| GGGTCTGA | -0.0333 |
| CCTACATA | -0.0943 |
